Source: the supplement of paper PMC12067093, “Discovery and optimisation of a covalent ligand for TRIM25 and its application to targeted protein ubiquitination” (Chemical Science, 2025)
About 21,000 targets were measured; listed, in parts, are those with the largest changes and a random draw of the rest.

Compound: CC1Cc2ccccc2N1C(=O)C1CCCN(C1)C(=O)CCl (mixture of isomers) [TRIM25 ligand 11 (diastereomer mixture)]
Assay: probe-labelled cysteine peptide fold change vs DMSO (competition) (log2 fold change); higher = less target engagement (more negative = stronger competition)
Details: THP-1, incubation time: 4 h
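Note: competitive chemoproteomic profiling in live THP-1 cells with an iodoacetamide desthiobiotin (IA-DTB) probe, comparing probe-labelled peptide intensities in compound-treated cells against DMSO-treated controls.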

Chain of UniProt Q16763 (Q16763 whole entry, looked up): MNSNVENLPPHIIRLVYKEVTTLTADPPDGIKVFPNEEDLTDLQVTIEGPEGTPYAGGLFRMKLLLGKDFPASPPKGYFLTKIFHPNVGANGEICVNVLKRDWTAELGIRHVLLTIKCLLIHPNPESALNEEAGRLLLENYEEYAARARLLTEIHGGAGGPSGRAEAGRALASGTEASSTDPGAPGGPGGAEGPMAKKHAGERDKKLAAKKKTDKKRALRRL
Chain of UniProt Q8N806 (Q8N806 whole entry, looked up): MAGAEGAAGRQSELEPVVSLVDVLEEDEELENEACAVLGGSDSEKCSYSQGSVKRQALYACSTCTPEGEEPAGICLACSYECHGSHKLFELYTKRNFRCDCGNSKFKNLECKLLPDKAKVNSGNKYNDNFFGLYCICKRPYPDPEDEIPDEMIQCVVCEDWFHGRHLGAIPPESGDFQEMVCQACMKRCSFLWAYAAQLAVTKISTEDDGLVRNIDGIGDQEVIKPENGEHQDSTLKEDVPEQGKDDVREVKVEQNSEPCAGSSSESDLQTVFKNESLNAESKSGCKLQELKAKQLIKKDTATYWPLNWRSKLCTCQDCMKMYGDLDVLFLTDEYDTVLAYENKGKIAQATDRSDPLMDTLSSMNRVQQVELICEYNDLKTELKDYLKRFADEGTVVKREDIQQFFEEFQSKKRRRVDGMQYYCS
Chain of UniProt A0JNW5 (A0JNW5 whole entry, looked up): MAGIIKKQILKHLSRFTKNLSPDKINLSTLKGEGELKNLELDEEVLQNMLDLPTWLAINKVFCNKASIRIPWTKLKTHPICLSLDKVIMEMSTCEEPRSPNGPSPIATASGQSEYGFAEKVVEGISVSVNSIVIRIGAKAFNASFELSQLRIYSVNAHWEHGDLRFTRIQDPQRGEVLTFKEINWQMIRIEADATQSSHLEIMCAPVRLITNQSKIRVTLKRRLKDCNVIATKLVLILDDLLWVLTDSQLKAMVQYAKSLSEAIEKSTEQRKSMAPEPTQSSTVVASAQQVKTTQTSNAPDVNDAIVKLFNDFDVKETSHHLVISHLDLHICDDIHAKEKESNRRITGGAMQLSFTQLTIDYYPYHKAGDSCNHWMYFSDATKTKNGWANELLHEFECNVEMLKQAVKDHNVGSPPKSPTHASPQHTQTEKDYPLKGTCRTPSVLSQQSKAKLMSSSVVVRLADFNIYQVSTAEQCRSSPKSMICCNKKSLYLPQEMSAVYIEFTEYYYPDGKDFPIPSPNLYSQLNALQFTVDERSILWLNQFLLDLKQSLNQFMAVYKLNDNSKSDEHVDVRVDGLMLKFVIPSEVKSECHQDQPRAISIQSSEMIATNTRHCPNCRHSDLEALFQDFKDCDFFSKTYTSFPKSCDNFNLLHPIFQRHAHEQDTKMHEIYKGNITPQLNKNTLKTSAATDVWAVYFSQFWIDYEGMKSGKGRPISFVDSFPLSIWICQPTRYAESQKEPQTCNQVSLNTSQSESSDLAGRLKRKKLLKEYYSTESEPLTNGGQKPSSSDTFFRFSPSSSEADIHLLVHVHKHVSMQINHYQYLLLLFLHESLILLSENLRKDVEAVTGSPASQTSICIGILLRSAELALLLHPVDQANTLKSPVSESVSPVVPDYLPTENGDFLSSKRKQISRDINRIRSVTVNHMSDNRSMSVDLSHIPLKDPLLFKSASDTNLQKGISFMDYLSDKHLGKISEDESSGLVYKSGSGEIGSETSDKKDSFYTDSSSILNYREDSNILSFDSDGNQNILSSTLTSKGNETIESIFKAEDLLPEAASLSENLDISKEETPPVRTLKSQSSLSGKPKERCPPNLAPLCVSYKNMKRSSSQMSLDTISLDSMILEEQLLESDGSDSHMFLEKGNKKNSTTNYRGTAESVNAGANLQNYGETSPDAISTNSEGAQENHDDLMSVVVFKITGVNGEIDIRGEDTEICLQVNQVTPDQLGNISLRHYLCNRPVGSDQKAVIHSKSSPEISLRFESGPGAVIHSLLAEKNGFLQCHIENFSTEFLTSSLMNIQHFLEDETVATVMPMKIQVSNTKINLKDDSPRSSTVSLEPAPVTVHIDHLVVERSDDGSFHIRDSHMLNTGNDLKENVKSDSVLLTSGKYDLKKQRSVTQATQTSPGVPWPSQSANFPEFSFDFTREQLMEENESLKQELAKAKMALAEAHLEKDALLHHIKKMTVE
Chain of UniProt Q6IBS0 (Q6IBS0 whole entry, looked up): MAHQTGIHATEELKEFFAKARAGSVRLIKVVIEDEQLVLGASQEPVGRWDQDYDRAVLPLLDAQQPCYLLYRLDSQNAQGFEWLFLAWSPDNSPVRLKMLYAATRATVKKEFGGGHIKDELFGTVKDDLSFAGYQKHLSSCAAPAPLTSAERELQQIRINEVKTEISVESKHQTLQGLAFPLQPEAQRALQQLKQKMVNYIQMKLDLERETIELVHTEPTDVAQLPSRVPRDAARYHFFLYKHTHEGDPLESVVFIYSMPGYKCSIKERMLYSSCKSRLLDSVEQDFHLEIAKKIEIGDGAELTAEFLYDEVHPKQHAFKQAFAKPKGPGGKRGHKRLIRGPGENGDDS
Chain of UniProt Q5VYS8 (Q5VYS8 whole entry, looked up): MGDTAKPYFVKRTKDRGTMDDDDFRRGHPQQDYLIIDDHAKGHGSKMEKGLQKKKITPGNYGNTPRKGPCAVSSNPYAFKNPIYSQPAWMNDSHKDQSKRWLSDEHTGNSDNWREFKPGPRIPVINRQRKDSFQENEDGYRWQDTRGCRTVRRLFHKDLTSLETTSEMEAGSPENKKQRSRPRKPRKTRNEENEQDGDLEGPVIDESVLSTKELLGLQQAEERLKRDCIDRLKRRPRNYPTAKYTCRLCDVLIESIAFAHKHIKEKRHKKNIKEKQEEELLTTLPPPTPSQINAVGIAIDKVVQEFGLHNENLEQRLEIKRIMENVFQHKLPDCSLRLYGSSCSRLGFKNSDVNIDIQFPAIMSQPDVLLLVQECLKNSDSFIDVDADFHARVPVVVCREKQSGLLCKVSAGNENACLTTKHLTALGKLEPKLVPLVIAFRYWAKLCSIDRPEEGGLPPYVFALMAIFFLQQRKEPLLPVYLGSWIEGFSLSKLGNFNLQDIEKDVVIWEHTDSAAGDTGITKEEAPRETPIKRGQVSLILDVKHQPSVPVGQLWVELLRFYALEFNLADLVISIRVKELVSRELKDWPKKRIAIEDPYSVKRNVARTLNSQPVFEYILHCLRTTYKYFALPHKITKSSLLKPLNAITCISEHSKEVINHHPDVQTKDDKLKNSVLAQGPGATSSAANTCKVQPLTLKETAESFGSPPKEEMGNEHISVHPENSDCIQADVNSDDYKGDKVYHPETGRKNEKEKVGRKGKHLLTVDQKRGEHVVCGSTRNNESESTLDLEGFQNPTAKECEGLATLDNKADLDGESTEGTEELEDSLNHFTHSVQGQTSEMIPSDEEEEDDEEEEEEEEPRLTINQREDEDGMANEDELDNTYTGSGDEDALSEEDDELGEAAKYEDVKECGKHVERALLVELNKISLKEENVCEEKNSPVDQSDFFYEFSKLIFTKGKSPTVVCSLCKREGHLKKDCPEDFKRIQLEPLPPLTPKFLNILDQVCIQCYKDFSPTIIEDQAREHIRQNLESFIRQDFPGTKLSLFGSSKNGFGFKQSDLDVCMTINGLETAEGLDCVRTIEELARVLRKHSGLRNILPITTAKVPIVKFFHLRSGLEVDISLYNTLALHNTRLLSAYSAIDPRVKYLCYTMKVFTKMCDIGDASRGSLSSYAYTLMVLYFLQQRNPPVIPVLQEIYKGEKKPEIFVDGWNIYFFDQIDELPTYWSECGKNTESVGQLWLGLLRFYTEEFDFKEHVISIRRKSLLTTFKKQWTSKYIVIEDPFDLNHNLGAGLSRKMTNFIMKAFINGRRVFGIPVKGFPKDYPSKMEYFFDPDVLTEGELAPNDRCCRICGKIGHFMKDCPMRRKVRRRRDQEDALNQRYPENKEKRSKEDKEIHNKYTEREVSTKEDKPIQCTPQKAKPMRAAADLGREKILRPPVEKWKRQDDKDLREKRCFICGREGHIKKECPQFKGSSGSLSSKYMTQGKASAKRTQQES
Chain of UniProt O60701 (O60701 whole entry, looked up): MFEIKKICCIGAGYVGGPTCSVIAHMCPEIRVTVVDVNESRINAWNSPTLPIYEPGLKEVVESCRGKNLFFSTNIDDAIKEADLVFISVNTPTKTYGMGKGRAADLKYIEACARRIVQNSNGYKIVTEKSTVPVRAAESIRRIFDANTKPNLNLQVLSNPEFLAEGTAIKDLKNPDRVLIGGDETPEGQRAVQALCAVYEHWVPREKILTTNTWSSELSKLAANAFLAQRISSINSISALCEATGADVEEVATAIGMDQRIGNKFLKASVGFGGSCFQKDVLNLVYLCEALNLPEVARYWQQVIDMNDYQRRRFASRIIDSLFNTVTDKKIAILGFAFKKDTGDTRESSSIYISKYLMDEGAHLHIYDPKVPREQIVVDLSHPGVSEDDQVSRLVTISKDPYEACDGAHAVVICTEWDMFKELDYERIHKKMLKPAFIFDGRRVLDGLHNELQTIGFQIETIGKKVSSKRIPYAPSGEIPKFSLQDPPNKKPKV
Chain of UniProt Q96AX1 (Q96AX1 whole entry, looked up): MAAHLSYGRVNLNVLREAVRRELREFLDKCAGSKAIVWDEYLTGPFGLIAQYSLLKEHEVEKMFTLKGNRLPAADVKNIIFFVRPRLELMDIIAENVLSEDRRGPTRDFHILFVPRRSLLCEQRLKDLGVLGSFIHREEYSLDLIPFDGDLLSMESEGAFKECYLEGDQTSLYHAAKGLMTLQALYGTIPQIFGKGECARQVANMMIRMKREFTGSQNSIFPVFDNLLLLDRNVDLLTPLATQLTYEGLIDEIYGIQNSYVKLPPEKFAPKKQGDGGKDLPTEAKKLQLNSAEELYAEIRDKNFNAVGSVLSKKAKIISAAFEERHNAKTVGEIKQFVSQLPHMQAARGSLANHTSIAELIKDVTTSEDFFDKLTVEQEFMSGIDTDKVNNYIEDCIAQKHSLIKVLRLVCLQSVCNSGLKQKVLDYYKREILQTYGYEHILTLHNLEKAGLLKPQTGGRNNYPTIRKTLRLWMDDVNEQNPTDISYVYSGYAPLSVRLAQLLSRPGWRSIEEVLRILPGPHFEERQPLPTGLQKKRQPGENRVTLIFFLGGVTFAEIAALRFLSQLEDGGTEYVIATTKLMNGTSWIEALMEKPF

Target	probe-labelled cysteine peptide fold change (10 µM)	probe-labelled cysteine peptide fold change (50 µM)
UNK_Q9C0B0_696_ASAAGAECELAR (UniProt Q9C0B0)	-0.00765	-0.0535
WDR1_O75083_438_KCFSIDNPGYEPEVVAVHPGGDTVAIGGVDGNVR (UniProt O75083)	-0.415	-0.364
VPS33A_Q96AX1_416_LVCLQSVCNSGLK (UniProt Q96AX1)	0.136	0.236
TTF1_Q15361_445_KTQACLASK (UniProt Q15361)	-0.0195	-0.0681
UHRF1BP1L_A0JNW5_647_SCDNFNLLHPIFQR (UniProt A0JNW5)	0.0486	-0.169
TSC2_P49815_414_CADQRPESSLLNLISYR (UniProt P49815)	0.037	0.0711
UGDH_O60701_27_ICCIGAGYVGGPTCSVIAHMCPEIR (UniProt O60701)	0.0264	-0.0868
UBA6_A0AVT1_455_ACIGDTLCQK	0.0745	0.0509
USP8_P40818_962_CTLQDCLR (UniProt P40818)	0.0281	0.116
TUT7_Q5VYS8_1008_FLNILDQVCIQCYK (UniProt Q5VYS8)	0.0777	0.138
WDR82_Q6UXN9_153_PVCSFDPEGLIFAAGVNSEMVK (UniProt Q6UXN9)	-0.0208	0.122
WDR74_Q6RFH5_201_LVTCTGYHQVR (UniProt Q6RFH5)	-0.0882	-0.107
VRK3_Q8IV63_244_LYSTPLLAIPTCMGFGVHQDK (UniProt Q8IV63)	-0.0261	-0.132
TWF2_Q6IBS0_67_AVLPLLDAQQPCYLLYR (UniProt Q6IBS0)	-0.0438	0.311
USP16_Q9Y5T5_631_EVFNTDECSIQHCLYQFTR (UniProt Q9Y5T5)	0.0427	-0.182
UBE2S_Q16763_118_CLLIHPNPESALNEEAGR (UniProt Q16763)	0.0159	0.149
UBR7_Q8N806_155+158_RPYPDPEDEIPDEMIQCVVCEDWFHGR (UniProt Q8N806)	-0.0226	-0.254
TUBGCP6_Q96RT7_640_DCAVYVGR (UniProt Q96RT7)	0.0361	0.0424
